Paper PMC10668032
The other results are listed elsewhere or left out. At the low end of the ranking, values are background and their order means little.

target: SIX1-Q177R homeodomain (UniProt Q15475); assay: universal protein binding microarray; conditions: Universal all-10-mer PBM (8x60K, AMADID 030236), 300 nM GST-tagged protein, Alexa Fluor 488 anti-GST; buffer, salt, pH and temperature not stated; high values mean tight binding; most listed sequences are background and not binding sites; double strand, one strand shown

| Sequence | binding signal [E-score] |
| --- | --- |
| ATTCCGAA | -0.154 |
| GATGTGGC | -0.0811 |
| TCGCCCGA | 0.0414 |
| ACCCAACA | 0.251 |
| CAAGTTAC | -0.109 |
| CGAAAGAA | -0.169 |
| GGCGGACC | 0.00194 |
| CATTCTAA | -0.203 |
| GCCTACCA | -0.281 |
| AACCTGAA | -0.129 |
| AAGATGGC | -0.0948 |
| AAGAACGG | -0.103 |
| AGAGTTAT | 0.0409 |
| CGGCCAAC | 0.0603 |
| GGCATCCA | -0.0943 |
| CGTCAATC | -0.19 |
| CCTAGATC | -0.137 |
| AAGCAGCA | -0.266 |
| GTACGACA | 0.297 |
| CCACGTGA | 0.0106 |
| CCCTGAAG | 0.0625 |
| GTGGACAA | 0.0232 |
| CAATCTTC | -0.282 |
| GCGTGTAC | 0.439 |
| AAGGCGGG | 0.132 |

| Sequence | binding signal [E-score] |
| --- | --- |
| GAGTGGGA | -0.0417 |
| CCGACACG | 0.418 |
| ATTCTGCG | -0.175 |
| AACTTTTA | -0.248 |
| CATAAGTA | -0.0142 |
| CAGAATGG | -0.134 |
| CGACGTAG | -0.0563 |
| AAGTGTCG | 0.384 |
| CCGTCGTC | -0.148 |
| AGCTATGG | -0.216 |
| AACTGTCA | -0.199 |
| TACAGCTA | 0.107 |
| ACGATTGA | -0.0565 |
| CCCCATCC | 0.21 |
| GAAGTGCC | -0.0872 |
| AGGTTAAT | -0.108 |
| AGAATCCG | -0.0261 |
| AATTGACG | -0.0709 |
| TCCCTGCA | 0.0634 |
| ATATGTGG | 0.102 |
| GAGCAAGC | -0.255 |
| CCGTTCTA | 0.0384 |
| ATAGCGGC | -0.0632 |
| AAAAACCA | -0.0871 |
| CAGCCACA | 0.111 |

| Sequence | binding signal [E-score] |
| --- | --- |
| ATAATCTC | -0.00122 |
| CTCGCTTA | -0.043 |
| CTACTCTA | -0.00995 |
| CACACATA | 0.15 |
| AAAAATCG | -0.238 |
| CTCGATGA | -0.0836 |
| CACTGAGC | 0.115 |
| AGCTTCGA | -0.188 |
| ACGACCCG | 0.179 |
| AGGCACCA | 0.178 |
| CAACGTCC | -0.0697 |
| CCTGTGCA | 0.0774 |
| AATCTAGT | -0.163 |
| AGGCCCTG | -0.123 |
| ACATGGGC | -0.217 |
| ACAACATG | -0.0603 |
| AAGAAACG | -0.0149 |
| CGGGCGCA | 0.0465 |
| GTTAGAGA | -0.225 |
| AAAGGCCA | 0.128 |
| CATTTGTA | -0.0203 |
| ATGTTCCC | -0.115 |
| ACACGGCA | 0.374 |
| ATCGGAAC | -0.106 |
| AACCCTGT | -0.037 |

| Sequence | binding signal [E-score] |
| --- | --- |
| CGCTGAAG | -0.218 |
| GGCGTGTA | 0.438 |
| AAAGCCGT | -0.11 |
| CCTTACGC | -0.0815 |
| CGAAACCA | 0.00389 |
| AATAGTGA | -0.237 |
| ACTCAAGC | -0.0937 |
| ATGTGCCA | -0.0933 |
| CGAGATCC | 0.0469 |
| AAGCGTTC | -0.134 |
| GGGCTAAC | -0.0357 |
| CCGGAAAA | -0.0172 |
| ACGTAACC | -0.041 |
| GCCTTCGA | -0.172 |
| TCCACAAA | -0.0503 |
| AGTGTTAT | 0.395 |
| GAGGAGAC | -0.157 |
| GGGGGAGA | -0.0362 |
| AGCAAGTC | -0.322 |
| ACTCACCC | 0.0264 |
| AGAGTGCG | 0.0717 |
| GACTTAAC | -0.0325 |
| ATCCGGGA | 0.061 |
| AAAGTGAC | -0.00315 |
| GGCGCGCC | -0.0404 |

| Sequence | binding signal [E-score] |
| --- | --- |
| GAGTGAAC | -0.0846 |
| CGACTTGA | -0.258 |
| ATATCCAA | -0.116 |
| AATGATGG | -0.126 |
| ACAGAATA | 0.00178 |
| ATCTACAC | 0.404 |
| GCACGGGA | -0.0239 |
| ACGGTCTA | -0.27 |
| CGTAAAAC | -0.0532 |
| AATACCAC | 0.0356 |
| GTCACCAA | 0.133 |
| CTAAGATA | -0.0574 |
| CGGAAACA | 0.136 |
| GAGTATCA | 0.228 |
| CGCTAGGA | -0.0248 |
| GAAGGTTA | -0.132 |
| CAAGCTGA | -0.191 |
| ATGCTAGG | -0.0658 |
| AGTAACGC | -0.104 |
| AGGGGTCG | 0.258 |
| GAAACCAC | 0.0452 |
| CGTTACCC | 0.207 |
| CTAAGGGC | -0.171 |
| GAGTGATC | 0.0711 |
| AGCAGATA | -0.0353 |

| Sequence | binding signal [E-score] |
| --- | --- |
| GAACCGAA | -0.118 |
| AATGGCAT | -0.33 |
| GCCACCAA | -0.27 |
| ACCTCTGC | -0.0341 |
| AGCAAACA | 0.0665 |
| AAAAGCAA | -0.247 |
| ACCGTTCG | 0.0748 |
| CATGGTCC | -0.125 |
| TAAGCCCA | -0.162 |
| GTTCGCGA | -0.0734 |
| TCTGTGAA | 0.0431 |
| ACATTTGA | -0.0673 |
| AACTACTA | -0.18 |
| GTAGATCA | 0.00254 |
| AAGTGAAG | -0.194 |
| CTGGGGGC | -0.153 |
| ATCGAAGG | -0.176 |
| AAGGTGCA | 0.222 |
| AGAAACAT | -0.231 |
| GAATGGCA | -0.244 |
| ACAGTTAG | -0.223 |
| GTAAGGAA | -0.155 |
| CTGCTAAA | -0.133 |
| AGTACGTA | -0.117 |
| ACTAGTTA | 0.0365 |

| Sequence | binding signal [E-score] |
| --- | --- |
| AAGTCCCA | -0.237 |
| GGCTACTA | 0.0205 |
| AAAGCCCC | -0.176 |
| CCGGACCA | 0.00515 |
| CAAATTGA | -0.185 |
| GTTATACA | 0.171 |
| CAAGGCAG | -0.0349 |
| ACTACCGA | 0.00587 |
| AGGCTCAG | -0.119 |
| ATTTTACC | 0.0215 |
| GCTCGTTA | 0.0488 |
| CGCCGTAG | -0.111 |
| TCCTACCA | -0.102 |
| GGAATTCA | -0.175 |
| TACAGTGA | -0.0933 |
| GTTCTTGA | 0.0137 |
| ATCTCAAG | -0.166 |
| TCAGTACA | 0.154 |
| ACCAGCCT | -0.147 |
| CCCAAATC | -0.207 |
| CCCGGCAG | -0.0722 |
| CCCTCAGG | -0.0716 |
